# Experimental data reported in PubChem BioAssay AID504832 (National Center for Advancing Translational Sciences (NCATS), 2011).
# Screen size: about 310,000 compounds; about 18,000 (5.8%) were called active. Inconclusive means that the source gave no clear call. Such entries were picked first, then a sample of the others. The call rests on the fitted dose curve; in most records, active means well fitted inhibition curve with a large enough effect; inconclusive means small, poorly fitted or top-dose-only effect, or another doubt; inactive means no such curve, though single readings can be large or run the other way. No potency is given beside an inconclusive call; the fits are too rough.
# Test: Primary qHTS for delayed death inhibitors of the malarial parasite plastid, 48 hour incubation
# Conditions: P. falciparum luciferase growth in erythrocytes; series mostly up to 28.7 µM; activity change, negative = inhibition: at the top concentration
# How it was run: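 First compound was added to culture medium, then infected red cells at 0.1% parasitemia and 2% hematocrit (final). After incubation at 37 C under 5% CO2, luciferase detection reagent was dispensed and light output recorded.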
# On the % scale 0 is the no-effect control and ±100 the full control effect; potency means the concentration at half of the fitted maximal effect; tags describe the fitted curve by direction and shape.
SMILES,"activity change, negative = inhibition",Potency
CCOc1ccc(CNc2ccc(CNc3ncn[nH]3)cc2)cc1,inactive: 44.7%,–
CC(C)[C@H](NC(=O)c1ccc(Cl)c([N+](=O)[O-])c1)C(=O)NCc1ccc(Cl)cc1Cl,–,"inconclusive [inhibitor, single point]"
CCCN(CCC)S(=O)(=O)c1ccc(NC(=O)c2cc(C(=O)OC)cc([N+](=O)[O-])c2)cc1,–,"inconclusive [inhibitor, full curve, poor fit]"
O=C(NCC1CCCO1)C(c1ccncc1)N(Cc1cccs1)C(=O)Cn1nnc(-c2ccc(F)cc2)n1 (centres undefined),inactive: 0.846%,–
Cc1oc(-c2cc(F)cc(F)c2)nc1CN1CCN(C(=O)c2ccco2)CC1,inactive: 4.62%,–
CC(=O)c1ccc(N2CCN(C(=O)c3cccs3)CC2)c(F)c1,–,"inconclusive [inhibitor, single point]"
Cc1ccc2[nH]c(=O)c(CN(Cc3ccco3)S(=O)(=O)c3c(C)ccc4nsnc34)cc2c1,inactive: -8.39%,–
Cc1ccc(Cl)cc1NC(=O)C1CCCN(S(C)(=O)=O)C1 (centres undefined),inactive: 12.8%,–
COc1ccc(CN2CNc3c(c(=O)n(C)c(=O)n3C)C2)cc1,inactive: 4.13%,–
C=CCn1c(SCC(=O)Nc2ccccc2C)nnc1-c1ccncc1,inactive: 6.39%,–
CCOC(=O)C1=C(C)Nc2nnnn2C1c1ccccc1Cl (centres undefined),inactive: -26.6%,–
Cc1nc(SCc2ccc(C(=O)O)cc2)c2c(C)c(C)sc2n1,–,"inconclusive [inhibitor, full curve, poor fit]"
CC(C)(C)c1ccc(CN2N=C(/C=C/c3ccccc3)CCC2=O)cc1,–,"inconclusive [inhibitor, single point]"
CSc1ccc(-c2nc(CN3CCCCC3c3cccnc3)c(C)o2)cc1 (centres undefined),–,active: 8.28 µM
COc1ccc(/C=N/NC2=NS(=O)(=O)c3ccccc32)cc1OC,–,"inconclusive [inhibitor, single point]"
CC1=CC(C)(C)Nc2ccc(OC(=O)CN3C(=O)c4ccccc4C3=O)cc21,–,active: 14.7 µM
Cc1c(N(C(=O)Nc2ccccc2)C2=NCC(C)S2)c(=O)n(-c2ccccc2)n1C (centres undefined),inactive: 42.5%,–
COc1ccc(NC(=O)CCN2CCN(c3ccccc3F)CC2)c(OC)c1,–,"inconclusive [inhibitor, full curve, poor fit]"
Cc1cc(C)c(S(C)(=O)=O)c(Oc2ccc(C(C)(C)C)cc2)n1,–,"inconclusive [inhibitor, full curve, poor fit]"
Cc1cc(NS(=O)(=O)c2ccc(NC(NC(=O)C(C(F)(F)F)C(F)(F)F)(C(F)(F)F)C(F)(F)F)cc2)no1,inactive: 9.22%,–
O=C(C1CCN(S(=O)(=O)c2cccnc2)CC1)N1CCN(c2ccccc2Cl)CC1,–,"inconclusive [inhibitor, single point]"
O=C(Nc1cc(Sc2nc3ccccc3s2)cc([N+](=O)[O-])c1)c1ccccc1,–,"inconclusive [inhibitor, single point]"
C[C@@H](C(=O)NCCCCCC(=O)O)n1nnc2ccccc2c1=O,–,"inconclusive [inhibitor, full curve]"

SMILES,"activity change, negative = inhibition",Potency
CC1CC(C)CN(C/C=C/c2ccccc2[N+](=O)[O-])C1 (centres undefined),–,"inconclusive [inhibitor, single point]"
COc1ccc(-c2c(C#Cc3ccsc3)c3ccccc3n2C)cc1,–,"inconclusive [inhibitor, full curve, poor fit]"
O=C(N/N=C/c1cccc(F)c1)c1csc2c1CCCC2,inactive: 85.6%,–
CN(C(=O)c1ccc2c(c1)OCO2)C1(C(=O)NC2CCCCC2)CCCCC1,–,"inconclusive [inhibitor, partial curve]"
Clc1ccc(-c2nn3c(-c4ccccc4)nnc3s2)cc1,inactive: 44.5%,–
NC(=O)CC(NC(=O)Cc1ccc(Br)cc1)c1ccc(N2CCN(c3ccc(F)cc3)CC2)c([N+](=O)[O-])c1 (centres undefined),–,"inconclusive [inhibitor, single point]"
COc1cc2c(=O)n(CCC(=O)NCC3CCCO3)c(=O)n(CC(=O)Nc3ccc(F)cc3)c2cc1OC (centres undefined),inactive: -20.2%,–
COc1cc(C(=O)Nc2ccc(-c3nnc(-c4ccco4)o3)cc2)cc(OC)c1OC,–,"inconclusive [inhibitor, full curve]"
CCSc1nc2c(c(=O)[nH]1)C(c1ccncc1)C(C(=O)OC(C)C)=C(C)N2 (centres undefined),–,"inconclusive [inhibitor, single point]"
COc1ccccc1/C=C/C(=O)OCC(=O)Nc1c(C)nn(-c2ccccc2)c1C,–,"inconclusive [inhibitor, single point]"
O=C(NNC(=S)NCc1ccc(Cl)cc1)c1ccc(Br)o1,inactive: 21.1%,–
NC(=O)c1oc2ccccc2c1NC(=O)c1nc2ccccc2s1,inactive: 164%,–
Cc1ccccc1CNC(=O)c1cc(COc2ccc(F)cc2F)on1,inactive: 39.7%,–
Cc1ccc(C(=O)NCCc2csc(-c3cccnc3)n2)cc1,–,"inconclusive [inhibitor, single point]"
O=C(NCC1CCCO1)C(c1ccc(N2CCOCC2)cc1)N(C(=O)Cn1nnc2ccccc21)c1ccccc1F (centres undefined),–,"inconclusive [inhibitor, partial curve]"
Cc1ccc(S(=O)(=O)NCCC(=O)OCC(=O)N(C)c2ccccc2)cc1,–,"inconclusive [inhibitor, single point]"
CCN(CC)c1ccc(/C=N/NC(=O)CC(C)C)cc1,inactive: 7.18%,–
CCOCCCN(C(=O)Cn1nnc(-c2ccc(C)o2)n1)C(C(=O)NC1CCCC1)c1ccc(C)o1 (centres undefined),–,"inconclusive [inhibitor, single point]"
COC(=O)c1c(NC(=O)/C=C/C(=O)O)sc(C)c1-c1ccc(C)c(C)c1,–,"inconclusive [inhibitor, single point]"
COc1ccc(/C=C2/SC(=S)N(Cc3ccccc3)C2=O)cc1O,–,active: 8.28 µM
COc1ccc(N(CC(=O)Nc2ccccc2C(=O)NCCc2ccccc2)S(C)(=O)=O)cc1OC,–,"inconclusive [inhibitor, single point]"
Cc1nnc(NC(=O)CCCCCN2C(=O)C3C4C=CC(C4)C3C2=O)s1 (centres undefined),–,"inconclusive [inhibitor, single point]"
CC(C)Cc1ccc(C(C)C(N)=NCCc2ccccc2)cc1 (centres undefined),–,"inconclusive [inhibitor, single point]"

SMILES,"activity change, negative = inhibition",Potency
Cc1cccc(C)c1NC(=O)CN(C)C(=O)c1cccc(S(=O)(=O)N2CCN(c3ccc(F)cc3)CC2)c1,–,active: 16.5 µM
CC(=O)N1CCN(C(=S)Nc2ccc(Oc3ccccc3)cc2)CC1,inactive: -12.8%,–
CC(=O)N1c2ccccc2N2C(c3c(C)c(C)cc(C)c3C)=NON12,–,"inconclusive [inhibitor, partial curve, poor fit]"
Cc1ccc(SCCNC(=S)Nc2ccc(C)c(C)c2)cc1,–,"inconclusive [inhibitor, full curve, poor fit]"
COc1ccc(/C=N/NC(=O)c2ccc(COCC(F)(F)C(F)F)cc2)cc1,inactive: -8.46%,–
COc1ccc(C(C(=O)NC(C)(C)C)N(C(=O)CCC(=O)Nc2cc(C)on2)c2ccc3c(c2)OCCO3)cc1 (centres undefined),–,"inconclusive [inhibitor, partial curve]"
CC(C)CC(O)C1CCN(C(=O)CCc2nnc(-c3ccc4c(c3)OCO4)o2)CC1 (centres undefined),inactive: -7.2%,–
COc1ccc2c(c1)CCc1cc(C(=O)N3CCN(c4ccc(N5CCOCC5)nn4)CC3)sc1-2,–,"inconclusive [inhibitor, partial curve]"
CCN1CCN(C(c2ccccc2)c2nnnn2Cc2ccc(OC)cc2)CC1 (centres undefined),inactive: 0.939%,–
Cc1cccc(C(=O)Nc2nnc(SCC(=O)Nc3ccc4c(c3)oc3ccccc34)s2)c1,inactive: 46.2%,–
CCOC(=O)c1ccc(NC(=S)NC(=O)C2CCCC2)cc1,–,"inconclusive [inhibitor, single point]"
Cc1ccc(-n2cc(CN3CCC(O)(c4ccccn4)CC3)c(-c3ccc(F)cc3)n2)cc1,–,active: 4.65 µM
O=C(N/N=C/c1cc(Br)c(Br)s1)c1ccncc1,–,"inconclusive [inhibitor, full curve]"
CCOc1cc(N2CCOCC2)c(OCC)cc1NC(=O)Cc1ccccc1OC,–,"inconclusive [inhibitor, partial curve, poor fit]"
CCc1ccccc1OCC(=O)Nc1ccc(C)c(S(=O)(=O)N2CCCCCC2)c1,–,active: 10.4 µM
CC1CCc2ccccc2N1C(=O)c1cccs1 (centres undefined),inactive: -22.8%,–
COc1ccc(CCNC(=O)c2cc3c(=O)n4ccccc4nc3n(CCCN3CCOCC3)c2=N)cc1,–,"inconclusive [inhibitor, full curve]"
CC1=CC(C)[C@H](/C=N/n2c(=O)[nH]c3c([nH]c4ccc(Br)cc43)c2=O)C(C)C1 (some centres undefined),–,"inconclusive [inhibitor, partial curve]"
CN(C)C(=S)N=Nc1[nH]c2ccccc2c1O,–,"inconclusive [inhibitor, partial curve, poor fit]"
CCc1ccccc1NC(=O)CN1CCN(C(=O)CCC(=O)N2CCC(c3ccccc3)=N2)CC1,–,"inconclusive [inhibitor, single point]"
CCOc1ccccc1NC(=O)Cc1coc2cc(C)ccc12,–,"inconclusive [inhibitor, partial curve, poor fit]"
Cc1ccccc1NC(=S)N/N=C1\CC(C)(C)Oc2ccc(O)cc21,–,"inconclusive [inhibitor, partial curve, poor fit]"
O=C(CN(Cc1ccco1)Cc1cccs1)N1CCN(S(=O)(=O)c2cccc(F)c2)CC1,–,active: 13.1 µM
